In the RNAGym collection of RNA variant scans (doi:10.7554/elife.90254):
The source gives no read counts; variants with many changes may rest on few reads.

B1: LINE1-mini (parent)
chain: GGCAGAGCUCAACACAGCGUGGCAAAGUGGCUGUGGCUAGACUGCC

Variants of: B1
Assay: self-cleavage, relative activity (ratio to wild type); higher = more cleavage; in vitro, sequencing; the parent is a self-cleaving ribozyme

Row | Variant | self-cleavage
1 | GGCAAAGCUCAACAUAGCGUGGCAACGUGACUGGGGCUAGACUGCC [G5A C15U A26C G30A U34G] | 0.04
2 | GUCGGAGGUCAACACAGCGUGACAAAGUGGCUGUGGCUAGACUGCC [G2U A4G C8G G22A] | 0.01
3 | GGCAGAGCUCAACACAGCGUGGCAAAGUAGCUGAGGCUAGCCUGCC [G29A U34A A41C] | 0.1
4 | GUCAGAGCUCAACACAGCGUAGCAAAUUGGCUGUGGCUAGACUGCC [G2U G21A G27U] | 0.15
5 | GGCAGAGCUCGACACACCGUGGCAAAGUGACUGUGGCUAGACUGCC [A11G G17C G30A] | 0.03
6 | GGCAGAGCUCAACAAAGCGUGGCAAAGGGGCUGUGGCUAGACUACC [C15A U28G G44A] | 0.03
7 | GGCAGAGCUAAACACAGCGUGGCAAAAUGGCUGUGGCUAUACUGCC [C10A G27A G40U] | 0.15
8 | GGCAGAGCUCAACAGAGCGUGGCAAAGCCGCUGUGGCUAGACUGCC [C15G U28C G29C] | 0.06
9 | GGCAGAGCUCAACACAGCGUGUCAAAGUGGCUGUGGCUACAAUGCC [G22U G40C C42A] | 0.17
10 | GGCAGACCUCUACACAGCGUGGCGAAGUGGCUGUGGCUAGACUGCC [G7C A11U A24G] | 0.03
11 | GGCAGAGGUCAACACAGCGUGGCACAGUGGCUGUUACUAGACUGCU [C8G A25C G35U G36A C46U] | 0.06
12 | GGCAGAGAUCAGCACAGCGUGUCAAAGUGGCUGUAGCUAGACUGCC [C8A A12G G22U G35A] | 0.08
13 | GGCAGAGCUCAACAUAGCGUGGCAACUUGGCUGUGGCGAGACUGCC [C15U A26C G27U U38G] | 0.03
14 | GGCAGAGCUCAAAACAGCGUGGCAAAGUGGCUGUGGCUAGAAUGAC [C13A C42A C45A] | 0.06
15 | GGCUGAGCUCAACACAGCGUGGAAAAGUCGCUGUGGCUAGACUGCC [A4U C23A G29C] | 0.43
16 | GGCAGAGCUCAACACACCGUGUCAAAGUGACUGUGGCUAGACUGCC [G17C G22U G30A] | 0.5
17 | CGCAGAGGUCAACACAGCAUUGCAAAGUGGGUGUGGCUAGACUGCC [G1C C8G G19A G21U C31G] | 0.03
18 | GGCCGAGCUCAGUACAGCGUGGGAAAGUGGGUGUGGCUAGACUGUC [A4C A12G C13U C23G C31G C45U] | 0
19 | GGCAGAGCUCAACACAGCGUGGCAACGUGGGUGUGGUUCGACUUCC [A26C C31G C37U A39C G44U] | 0.04

Row | Variant | self-cleavage
20 | GGCAGAGCCAAACAAAGUGUGGCAAAGUGGCUGUGGCUAGACUGCC [U9C C10A C15A C18U] | 0.03
21 | GGCAGAGCUAAACACAGCGUGGCAAGGAGGCUGUGCCUAGACUGCC [C10A A26G U28A G36C] | 0.01
22 | GGCAGAGCUCAACAGAGCGUGGCAAGGUGGCUGUGGUUAGACAGCC [C15G A26G C37U U43A] | 0.01
23 | GACAGAGCUCAACACAGAGUGGCAAAGUGGAUGUGGCUAGACUGCC [G2A C18A C31A] | 0.05
24 | GGCAGAGCUCACCACAGCUUGGUAAAGCGGCUGUGGCUAGACUGCC [A12C G19U C23U U28C] | 0.22
25 | GGCAGAGCUCAACACAGAGUGGCAAAGUGGCUGUGACUAGACUGCA [C18A G36A C46A] | 0.05
26 | GGCUGAGCUCAACACAGAGUGGCAAAGUGGAUGUGGCUACACUGCC [A4U C18A C31A G40C] | 0.08
27 | GGGAGAGCUCAACACAGCGUGGCAAAAUGGCUGUGGCUAGACUACC [C3G G27A G44A] | 0.87
28 | GGCACAGCUCAACCCAGCGUGGCAAAGUGGCUGAGGCUAGACUGCC [G5C A14C U34A] | 0.07
29 | GGCAGUGCUCAACACAGCGUGGUAAAGUGGCUGUGGCUGGACUGCA [A6U C23U A39G C46A] | 0.05
30 | AGCAGAGCUCAACACAACGUGGCAAAGUCGCUGUGGAUAGAGUGCC [G1A G17A G29C C37A C42G] | 0.03
31 | GGCAGCGCUCAACCCAGCGUGGCCAAGUGGCUGUGGCUAGAGUGCC [A6C A14C A24C C42G] | 0.02
32 | GGCAGAGCUCUAGACAGUGUGAAAAAGUGGUUGUGGCUUGACUGCC [A11U C13G C18U G22A C23A C31U A39U] | 0.01
33 | GUCAGAGCCCAACACAGCGUGGCAAAGUGGCUGUUUCUAGACUGCC [G2U U9C G35U G36U] | 0.02
34 | GGCAGAGCUCAACACAGAGUGCCAAAGUGGCUCUGGCUAGACUGCC [C18A G22C G33C] | 0.02
35 | GGCAGAGCCCCACACAGCGUGGCAAAGUUGCUGUGGCUAGACUGCC [U9C A11C G29U] | 0.03
36 | GGCAGAGCUCAACACAGCGUGGCAAGAUGGCUGUGGCUAGAAUCAC [A26G G27A C42A G44C C45A] | 0.04
37 | GGCAGAGCUCAUAACAGCGUGGCAAAUUGGCUGUGGCUAGACUGCC [A12U C13A G27U] | 0.1
38 | GGCAGAGCUCAAUACAGCGUAGCAAAGUGGCUCUGGCUCCACUUCC [C13U G21A G33C A39C G40C G44U] | 0.01

Row | Variant | self-cleavage
39 | AGCAGAGUUCAACACAGCGUGGCAAAGUGGAUGUGGCUAGAAUGCC [G1A C8U C31A C42A] | 0.67
40 | GGCACGGCUCAACACAACGUGGCAAAGUGUCUUUGACUAUACUGCC [G5C A6G G17A G30U G33U G36A G40U] | 0.06
41 | GGCAGAGCUCUACGCAGCGUGGCAAAGUAGCUGCGGCUAGACUGCC [A11U A14G G29A U34C] | 0.05
42 | GGUAGAGCUAAACACAGCGUGGCUAAGUGGCUGUGGCUAGACUGCC [C3U C10A A24U] | 0.42
43 | GGUAGGGCUCAGCACAGCGUGGCAAAGUGGCUUUGGCUAGACUGCC [C3U A6G A12G G33U] | 0.05
44 | GGCACAGCUCUACACUGCGUGGCAAAGUUGCUGUUGUUAGACUGCC [G5C A11U A16U G29U G35U C37U] | 0.01
45 | GGCAGAGCUCAACACAGCGUGUCAAAUUAGCUGAGGCUAGACUGCC [G22U G27U G29A U34A] | 0.31
46 | GGCAGAGCUCAACACAGAGUGGCAAAGUGGCUGUAACUACAGUGCC [C18A G35A G36A G40C C42G] | 0.01
47 | GGCAGAGCUCAACACAGCGGGGCAAGGUGGCUGUGGUUAUACUGCC [U20G A26G C37U G40U] | 0.02
48 | GGCAGAGUUCAACACAGCGUGGCAAAGUGGCAGUGGCUAUUCUGCC [C8U U32A G40U A41U] | 0.31
49 | GGCAUAGCUCAACACAGCGUGGCAAGGUGGUUGUUGCUAGACUGCC [G5U A26G C31U G35U] | 0.02
50 | GGCAGAGCUCAACAUGGCGUGGCAAAGUGGCUCUGGCUAGACUGCC [C15U A16G G33C] | 0.02
51 | GGCAGAGCUCGACACGGCGGGGCAAAGUGGAUGUGGCUAGACUGCC [A11G A16G U20G C31A] | 0.01
52 | GGCAGAGAUCAACACAGCGUGGCAAAGUGGAUGUGGCAAGACUUCC [C8A C31A U38A G44U] | 0.14
53 | GGCAAAGCUCAACACAGUGUGGCAAAGUGGCUGGGGCUAGACUGCC [G5A C18U U34G] | 0.01
54 | GGCAGAGCUAAACACAGUGUGGCAAAGUGGCUGAGGCUAAACGGCC [C10A C18U U34A G40A U43G] | 0.01
55 | GGCAGAGUUCAACACAGCGUGGCAAGGUGGCGGUGGCUAGACUGCC [C8U A26G U32G] | 0.09
56 | GGCCGAGCUCAACACAGCGUGGCAAAGUGGUUGUGGCUCGAUUUCC [A4C C31U A39C C42U G44U] | 0.01
